Reference: patent US20230017786A1, “DEXTR[…] A DISEASE-MODIFYING TREATMENT FOR NEUROPSYCHIATRIC DISORDERS AND DISEASES” (priority 2020, published 2023)

Tests used:
[1] = Study B, embryo fetal development in rats with toxicokinetic evaluation; settings: female, Sprague-Dawley, rat, in vivo
BDNF plasma levels = experiment: Plasma BDNF in normal volunteers treated with dextromethadone; assay type: in vivo, human; settings: for BDNF plasma levels: normal volunteers
patients with MDD = experiment: Phase 2a study in MDD, efficacy (MADRS, SDQ, CGI) and sub-analyses by BMI and chronicity; settings: for SDQ effect size d: Day 14
[2] = 25 mg, % life-years above 23%, N = 7
[3] = 25 mg, % life-years from start of MDD 23% and below, N = 12
[4] = 25 mg, BMI above median 28.6, N = 7
[5] = 25 mg, BMI below median 28.6, N = 12
[6] = 50 mg, % life-years 23% and below, N = 8
[7] = 50 mg, % life-years above 23%, N = 13
[8] = 50 mg, BMI above median 28.6, N = 11
[9] = 50 mg, BMI below median 28.6, N = 10
[10] = 25 + 50 mg, % life-years 23% and below, N = 20
[11] = 25 + 50 mg, % life-years above 23%, N = 20

Question: Which results are given for `CCC(=O)C(C[C@H](C)N(C)C)(c1ccccc1)c1ccccc1` [Dextromethadone, dextromethadone]?
Answer: AUC(0-t) ([1]; oral, 40 mg/kg/day): 9920 ng·h/mL; Cmax ([1]; oral, 40 mg/kg/day): 738 ng/mL; NOAEL ([1]; po): 40 mg/kg/day; tested Asian subjects with increase in plasma BDNF (BDNF plasma levels; N=2, compared to placebo): 100%; BDNF plasma levels (BDNF plasma levels; 25 mg): strongly statistically increase in BDNF; BDNF plasma levels (BDNF plasma levels; 50 and 75 mg): but not in subjects treated with 50 and 75 mg; first appearance of improvement on MADRS (patients with MDD; 25 mg group): Day 2; MADRS change (patients with MDD; 25 mg group, day 7): 17.4; MADRS change (patients with MDD; 25 mg group, day 14): 16.8; MADRS mean CFB Day 7 (patients with MDD; [2]): −13.14; MADRS mean CFB Day 14 (patients with MDD; [2]): −11.4; MADRS mean CFB Day 7 (patients with MDD; [3]): −18.91; MADRS mean CFB Day 14 (patients with MDD; [3]): −18.54; MADRS CFB day 7 (patients with MDD; 25 mg, BMI NL, N = 4): 21.75; MADRS CFB day 14 (patients with MDD; 25 mg, BMI NL, N = 4): 15.6; MADRS CFB day 7 (patients with MDD; 25 mg, BMI OB, N = 3): 8.6; MADRS CFB day 14 (patients with MDD; 25 mg, BMI OB, N = 3): 7.6; MADRS CFB day 7 (patients with MDD; 25 mg, BMI OW, N = 12): 16.91; MADRS CFB day 14 (patients with MDD; 25 mg, BMI OW, N = 12): 17.8; MADRS CFB day 7 (patients with MDD; [4]): 13.3; MADRS CFB day 14 (patients with MDD; [4]): 13.4; MADRS CFB day 7 (patients with MDD; [5]): 19.6; MADRS CFB day 14 (patients with MDD; [5]): 17.6; SDQ effect size d (patients with MDD; 25 mg): 0.9; MADRS mean CFB Day 7 (patients with MDD; [6]): −20; MADRS mean CFB Day 14 (patients with MDD; [6]): −21.5; MADRS mean CFB Day 7 (patients with MDD; [7]): −14.46; MADRS mean CFB Day 14 (patients with MDD; [7]): −15.9; MADRS CFB day 7 (patients with MDD; 50 mg, BMI NL, N = 6): 19.5; MADRS CFB day 14 (patients with MDD; 50 mg, BMI NL, N = 6): 24.75; MADRS CFB day 7 (patients with MDD; 50 mg, BMI OB, N = 8): 15.7; MADRS CFB day 14 (patients with MDD; 50 mg, BMI OB, N = 8): 21.1; MADRS CFB day 7 (patients with MDD; 50 mg, BMI OW, N = 7): 15.3; MADRS CFB day 14 (patients with MDD; 50 mg, BMI OW, N = 7): 12; MADRS CFB day 7 (patients with MDD; [8]): 16.7; MADRS CFB day 14 (patients with MDD; [8]): 20.8; MADRS CFB day 7 (patients with MDD; [9]): 16.6; MADRS CFB day 14 (patients with MDD; [9]): 15.4; SDQ effect size d (patients with MDD; 50 mg): 1.1; persistence of efficacy after abrupt discontinuation (patients with MDD; 1-week treatment course): at least one week; MADRS mean CFB Day 7 (patients with MDD; [10]): −19.35; MADRS mean CFB Day 14 (patients with MDD; [10]): −19.78; MADRS mean CFB Day 7 (patients with MDD; [11]): −14; MADRS mean CFB Day 14 (patients with MDD; [11]): −14.4; MADRS effect size vs placebo (patients with MDD; 25 and 50 mg, Day 4 to Day 14): 0.7-1.0; first statistically significant improvement on MADRS (patients with MDD; both dose groups): day 4; magnitude of the response on MADRS (patients with MDD; placebo response −7.4): −17.8 points on MADRS; remission of disease (MADRS score of 10 or less), patients (patients with MDD; within the first week of treatment, placebo 5%): over 30%
